Laboratory results reported in the RNAGym collection of RNA variant scans (doi:10.7554/elife.90254).
The source gives no read counts; variants with many changes may rest on few reads.

B1: LINE1-mini (parent)
chain: GGCAGAGCUCAACACAGCGUGGCAAAGUGGCUGUGGCUAGACUGCC

Variants of: B1
Assay: self-cleavage, relative activity (ratio to wild type); higher = more cleavage; in vitro, sequencing; the parent is a self-cleaving ribozyme

| Variant | self-cleavage |
| --- | --- |
| A4G U9A U43C | 0.25 |
| A4G G5C G19U U34C | 0.03 |
| A4G C13A U28G U32C C37A | 0.03 |
| A4G G5C A14G U20G A25G U34A | 0.01 |
| A4G C13A G33A | 0.09 |
| A4C G30U U38A | 0.02 |
| A4G C8U U20G | 0.05 |
| A4G A12G C45U | 0.06 |
| A4G A16C G22C G29C G33C C37A | 0.1 |
| A4U A14C G29C | 0.02 |
| A4U C31A U32A | 0.03 |
| A4G G7U A12C G21A G30A G36U | 0.09 |
| A4C U38C G40A C45U | 0.04 |
| A4G A14G G21U | 0.35 |
| A4C U20C U28A A39U | 0.04 |
| A4U A12C G19C C23A U43A | 0.01 |
| A4U A6C G19U U20C U32G | 0.05 |
| A4U A14C A24G G35U C46A | 0.01 |
| A4G G22A A24C G33A | 0.56 |
| A4G G7A G27U C31G | 0.07 |
| A4U C10A C45A C46U | 0.01 |
| A4G A11C A16G G30A C42A G44A | 0 |
| A4G G5U C10A G22U U38C | 0.03 |
| A4C G29C U43G C45U | 0.06 |

| Variant | self-cleavage |
| --- | --- |
| A4U C10A U28C | 0.04 |
| A4G G27U C31A | 0.21 |
| A4U C10A G33U C45A | 0.02 |
| A4G C18A A26G U34A G44U | 0.06 |
| A4G G30U C45U | 0.28 |
| A4G G5U C13A G17U | 0.06 |
| A4G A11C C42A | 0 |
| A4G C8A A12C A14C G19A U20C G29U C31U U43C | 0.01 |
| A4G A11C C15A A16G C18A A25G G27U | 0 |
| A4U C8A G19C G33A C46G | 0.07 |
| A4G A11G G17A A24U | 0.02 |
| A4U A14U A25U | 0.17 |
| A4U C23G G29U U32G | 0.01 |
| A4U C18U U20G | 0.02 |
| A4C U9A A11G C15A A26G G30A | 0.01 |
| A4C U28C C31A G44A C46U | 0.04 |
| A4G G22U G29A C37U C45U | 0.07 |
| A4G G17C G36U | 0.19 |
| A4G C18A G22C | 0.42 |
| A4U C10U C13U C31U U38C C45U | 0.06 |
| A4U C10A C18G | 0.03 |
| A4C G36U C37A | 0.07 |
| A4G G5A G27A | 0.05 |
| A4G C42U C46U | 0.08 |

| Variant | self-cleavage |
| --- | --- |
| A4G G7C C13A C45A | 0.41 |
| A4U A6U G7U G33A | 0.24 |
| A4G U9C A11U C23G G36U C46A | 0.01 |
| A4U C13A C42A | 0.09 |
| A4G C18A C23A U32A G44A | 0.06 |
| A4U A12U C13A C45A | 0.13 |
| A4G C10A A12C U43C | 0.04 |
| A4U A25G G30A G33U C37A C42G C46G | 0.1 |
| A4G A6G G30C | 0.04 |
| A4U A24C G27A G33U | 0.17 |
| A4U A11C C13U G21A | 0.02 |
| A4U C13A G17A A25U G44U | 0.07 |
| A4G G36A C37G | 0.04 |
| A4G U20G G35U C46U | 0.16 |
| A4U A26U C46A | 0.35 |
| A4U C10A U28C C37G C45U | 0.01 |
| A4G G5A C45U | 0.07 |
| A4G A25U G27U | 0.24 |
| A4U G5A C18A G27C C45U | 0.02 |
| A4U C10G A26G G29U | 0.01 |
| A4U C13U C23A C45U | 0.2 |
| A4C G21U A26G | 0.03 |
| A4G G30U C37U A39U G44C | 0 |
| A4G G40A C45G | 0.15 |

| Variant | self-cleavage |
| --- | --- |
| A4U C10A G17C | 0.01 |
| A4G A14C C18A C46G | 0.06 |
| A4G U20C G35U A39C | 0.02 |
| A4G A6U C15G C31A | 0.01 |
| A4U C10G G36A A41G | 0.03 |
| A4G G5A A12U G36A | 0.05 |
| A4G C13A A26C U32C C45A | 0.01 |
| A4G A6G G33A G35U C42A C45A | 0.03 |
| A4U A24G G35C | 0.01 |
| A4G A6G C18G G27U | 0.03 |
| A4U C10G A14G G35U | 0 |
| A4G G33C C37U | 0.01 |
| A4C G21C C37U | 0.03 |
| A4G C10A A16U | 0.04 |
| A4G U9A C13U C15G G44C | 0.02 |
| A4G G5U C15G G27A G29U U34G G40U C46U | 0.01 |
| A4U C15A G22C G33C | 0.03 |
| A4U G5A C37G A39C | 0.09 |
| A4G G21C G29U G40C | 0.07 |
| A4G C8A A16U U34G G35U C37A | 0.05 |
| A4G U34G A39C | 0.03 |
| A4G C15G G29U U32A | 0.03 |
| A4G A6G A14U C31U G35A | 0.02 |
| A4U G5A C8A C46G | 0.13 |

| Variant | self-cleavage |
| --- | --- |
| A4U C31G A41G | 0.05 |
| A4G U38G C45U | 0.01 |
| A4G G27C C37A | 0.04 |
| A4U A6C C23A U28C | 0.02 |
| A4G C10U C23A G30U | 0.34 |
| A4U A6G A39G A41C C46G | 0.02 |
| A4G C10U C13G G22A C46U | 0.05 |
| A4U G5A G7C U9G C10A | 0.05 |
| A4C G29A G35U | 0.18 |
| A4G A24G A25U | 0.52 |
| A4U A11U G19U | 0 |
| A4G G7A C15U A25U G35C U38A | 0.37 |
| A4G C18G A26U U32A G44A | 0.04 |
| A4G A11G C23A | 0.02 |
| A4C U9G C18A G29C G40U C45G | 0.03 |
| A4G G7U A26C U32C U38G C45A | 0.02 |
| A4G C8A C13U C15G U32C | 0.03 |
| A4G G27A G35C | 0.1 |
| A4U A25U A41G | 0.04 |
| A4G C15G A39U C45A | 0.12 |
| A4G G17C C23G C31G C37A | 0 |
| A4U A16G U38C | 0.14 |
| A4U A6C C10A | 0 |
| A4G C18G U28C U34C | 0.16 |

| Variant | self-cleavage |
| --- | --- |
| A4G A25U U28C C31U | 0.25 |
| A4G A16U G27U | 0.4 |
| A4G G30C G36A | 0.07 |
| A4U A11G C13A | 0.01 |
| A4U C13A C23A C31U G33U | 0.02 |
| A4U A11U G22U G27A | 0 |
| A4G C15A C42U | 0.35 |
| A4G G22A G33U U38G | 0.11 |
| A4G C13G A14C C42A C46A | 0.06 |
| A4C U32G C42G | 0 |
| A4G C15G C46A | 0.04 |
| A4G U32G U43A | 0.07 |
| A4G A12C C15U C23U A26G | 0.02 |
| A4G C18G A26C | 0.06 |
| A4G G21A A26G G30U U43G C45G C46U | 0.02 |
| A4U C10A G19A C37G A41C | 0 |
| A4C U32A G40U | 0.18 |
| A4G A12G A24U C46U | 0 |
| A4G U9A G19A | 0.03 |
| A4G A14G C15U G27U | 0.15 |
| A4G A11C U32C U43G | 0.01 |
| A4G C8A C45G | 0.19 |
| A4G U9A C10A G21U | 0.02 |
| A4G G7U G19U | 0.12 |

| Variant | self-cleavage |
| --- | --- |
| A4U C8A C23U U32G C46A | 0.17 |
| A4U C18U G21A | 0.26 |
| A4G A11G G44U | 0.02 |
| A4G A6U G7A G19U A41C C45A | 0.07 |
| A4C G40C C42A U43C G44U | 0.11 |
| A4U C23G U28A G44A | 0.17 |
| A4C G33U U34G | 0.03 |
| A4G U28G U34G G40U | 0.03 |
| A4U C15U G21C | 0.23 |
| A4U A6U C13G C15A G36A U38G | 0.02 |
| A4G U9G G22U | 0.16 |
| A4C G40C U43G | 0.04 |
| A4G G7U C15U G17A A41C C45A | 0.11 |
| A4G A24G U28C | 1.04 |
| A4U C10A C46G | 0.03 |
| A4G A12U C18A G21C G29U A41U C45U | 0.08 |
| A4G G7U G19C A25G U34G U38G | 0 |
| A4G G21C G40A | 0.07 |
| A4U C10A G30C C31A G44U | 0.01 |
| A4U A6U A12G C31G G40U U43A | 0.01 |
| A4G G5C G27U U28C G29A A39G | 0.02 |
| A4G C23G C31G U34A | 0.01 |
| A4G C18A U34G | 0.12 |
